# Measured values taken from PubChem BioAssay AID2147 (National Center for Advancing Translational Sciences (NCATS), 2009).
# In all, about 230,000 compounds went through this assay and about 3,600 (1.6%) were called active. Where a call stands in place of a potency, no number is given. Inconclusive results, whose numbers are uncertain, are shown with a selection of clear calls. Calls come from the whole dose curve; as a rule, active = well fitted inhibition curve with a large enough effect (not every such curve was filed as active); inconclusive = small, poorly fitted or top-dose-only effect, or another doubt; inactive = no such curve, though single readings can be large or run the other way. Potencies of inconclusive entries are doubtful fits and often do not repeat.
# Biological target: Lysine-specific demethylase 4E (Homo sapiens) (UniProt B2RXH2)
# Sequence of UniProt B2RXH2 (B2RXH2 whole entry, looked up, the tested form may be a part): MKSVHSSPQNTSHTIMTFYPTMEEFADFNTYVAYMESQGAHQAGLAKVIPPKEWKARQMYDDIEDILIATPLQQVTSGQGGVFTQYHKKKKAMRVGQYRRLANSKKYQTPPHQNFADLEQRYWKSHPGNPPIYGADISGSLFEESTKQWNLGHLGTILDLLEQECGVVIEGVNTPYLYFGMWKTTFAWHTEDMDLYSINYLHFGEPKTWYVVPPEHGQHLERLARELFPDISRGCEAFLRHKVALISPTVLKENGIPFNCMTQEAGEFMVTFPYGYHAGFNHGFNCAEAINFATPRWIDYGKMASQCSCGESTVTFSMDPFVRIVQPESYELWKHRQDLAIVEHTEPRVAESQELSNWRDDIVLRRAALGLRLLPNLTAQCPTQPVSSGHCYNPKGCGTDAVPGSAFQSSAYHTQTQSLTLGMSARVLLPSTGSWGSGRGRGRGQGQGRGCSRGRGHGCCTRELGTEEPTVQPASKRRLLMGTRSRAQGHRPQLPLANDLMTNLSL
# Experiment: qHTS Assay for Inhibitors of Human Jumonji Domain Containing 2E (JMJD2E)
# Conditions: JMJD2E catalytic domain, FDH-coupled NADH fluorescence (FDH is formaldehyde dehydrogenase); series mostly up to 57.1 µM
# Note: nearly all actives have a fitted effect of over 50% in size.
# Potency is the fitted concentration of half-maximal effect; tags give direction and shape of the fitted curve.
row,SMILES,Potency
1,COc1cc2c(cc1NC(=O)COC(=O)C(CCSC)NC(=O)c1ccccc1Cl)oc1ccccc12 (centres undefined),"inconclusive: 35.5 µM [inhibitor, partial curve]"
2,C=CCn1c(CCSCc2ccc(OC)c(C)c2)n[nH]c1=S,inactive
3,CCOC(=O)N1CCN(C(=O)C2CCN(c3ncnc4c3sc3cccc(F)c34)CC2)CC1,"inconclusive: 25.1 µM [inhibitor, partial curve]"
4,Cc1csc2nc3ccccc3c(=O)n12,"inconclusive: 31.6 µM [inhibitor, partial curve]"
5,Cc1ccc(-n2c(C)cc(/C=N/NC(=O)Cn3c4ccccc4c(=O)c4ccccc43)c2C)cc1,"inconclusive: 8.91 µM [inhibitor, partial curve]"
6,COc1ccc(Cl)cc1C(=O)NCc1ccco1,inactive
7,CCc1nnc(NS(=O)(=O)c2ccc(NC(=S)NC(=O)c3ccncc3)cc2)s1,"inconclusive: 35.5 µM [inhibitor, single point]"
8,Cc1cccc(NC(=O)CN2C(=O)N/C(=C/c3ccc(-c4cccc(C(=O)O)c4C)o3)C2=O)c1,inactive
9,COC(=O)C1=C(C)N(c2ccccc2)/C(=C/c2ccco2)C1=O,"inconclusive: 17.8 µM [inhibitor, single point]"
10,COC(=O)c1ccc(NC(=O)Nc2ccc(F)c(Cl)c2)cc1,inactive
11,Cc1ccc(NC(=O)c2cc(N3CCOCC3)nc3ccccc23)cc1,"inconclusive: 31.6 µM [inhibitor, single point]"
12,Cc1nn(C)cc1C(C)NCc1c(C(=O)N2CCCCCCC2)nc2ccc(Cl)cn12 (centres undefined),inactive
13,C=CCn1c(N)cc(=O)nc1SCC(=O)Nc1ccc(C)cc1,inactive
14,COc1ccccc1C(=O)NCCNC(=O)c1ccco1,inactive
15,COCCN=C1OC(=O)N2C(=O)C3=C4C(C[C@H]5C(=O)N(CC(=O)OC)C(=O)[C@H]5[C@H]4[C@@]12Cc1ccccc1)[C@H]1C(=O)N(CC(=O)OC)C(=O)[C@H]1[C@H]3C (some centres undefined),inactive
16,COCCN1C=C(C(=O)OC)C(c2ccc(OC)c(OC)c2)C(C(=O)OC)=C1,"inconclusive: 31.6 µM [inhibitor, partial curve]"
17,COc1ccc(C2CC(c3ccccc3)=NN2C(=O)COC(=O)C2(C)CC2(Cl)Cl)cc1 (centres undefined),"inconclusive: 28.2 µM [inhibitor, single point]"
18,CO/N=C(\Cn1ncc(NC2CCCCC2)c(Br)c1=O)c1ccc(Cl)cc1,inactive
19,COc1cccc(/C=N/NC(N)=S)c1OCc1cccc(Cl)c1,"inconclusive: 28.2 µM [inhibitor, partial curve]"
20,N#Cc1ccccc1COC(=O)c1cccnc1N,"inconclusive: 31.6 µM [inhibitor, partial curve]"
21,O=C(c1nc2n(n1)C(c1ccc(Cl)cc1)C=C(c1ccccc1)N2)N1CCOCC1 (centres undefined),"inconclusive: 28.2 µM [inhibitor, partial curve]"
22,C/C(N)=C(/C#N)C(=O)CSc1nnc(Nc2ccccc2C)s1,inactive
23,Cc1nc(N2CCOCC2)c2nc(-c3ccccc3)n(CCCN3CCOCC3)c2n1,"inconclusive: 25.1 µM [inhibitor, partial curve]"
24,O=C(CO/N=C/c1ccc(OC(F)F)cc1)N1CCc2ccccc21,inactive
25,Cc1ccc(NC(=O)Cn2nc(-c3ccccc3Cl)ccc2=O)c(Br)c1,inactive

row,SMILES,Potency
1,CCCN1CNc2c(c(=O)[nH]c(=S)n2CCc2ccc(OC)c(OC)c2)C1,inactive
2,NS(=O)(=O)c1ccc(CCNC(=O)c2cc(-c3cc(Cl)ccc3O)n[nH]2)cc1,"inconclusive: 39.8 µM [inhibitor, single point]"
3,COc1ccc(NC(=O)Nc2ccc3c(c2)CCC3)cc1OC,inactive
4,C=CCn1cc(-c2ccc(Cl)cc2)cc(C#N)c1=O,"inconclusive: 28.2 µM [inhibitor, partial curve]"
5,S=c1[nH]nc(-c2cc(-c3ccccc3)n[nH]2)n1/N=C/C(Br)=C/c1ccccc1,inactive
6,N#Cc1ccccc1CSC1=NCCS1,inactive
7,Cc1cccc2cc(CN(CC3CCCO3)C(=O)NC3CCCCC3)c(=O)[nH]c12 (centres undefined),"inconclusive: 39.8 µM [inhibitor, single point]"
8,COCC1CCN(Cc2cn(C)nc2-c2cccc(Cl)c2)C1 (centres undefined),inactive
9,CN1CCN(CCCNC(=O)Cn2ncc3c4ccccc4n(C)c3c2=O)CC1,"inconclusive: 25.1 µM [inhibitor, partial curve]"
10,COc1ccc(S(=O)(=O)N2CCC(C(=O)N3CCc4ccccc4C3)CC2)cc1,inactive
11,Cc1cccc(CSc2cccc3cccnc23)c1,"inconclusive: 31.6 µM [inhibitor, single point]"
12,CSc1ccc(C(=O)C2CCCN(C(=O)c3csc(C(C)=O)c3)C2)cc1 (centres undefined),inactive
13,COc1ccccc1CN(Cc1cc2cc(C)ccc2[nH]c1=O)Cc1nnnn1CC1CCCO1 (centres undefined),"inconclusive: 28.2 µM [inhibitor, partial curve]"
14,Cc1sc2ncnc(NCc3cccs3)c2c1C,inactive
15,COc1ccc(OC)c2sc(N3CCCCC3)nc12,inactive
16,Clc1ccc(-c2csc(N/N=C/c3cccnc3)n2)c(Cl)c1,inactive
17,CCOC(=O)CC1C(=O)NCCN1c1nc2ccc(C)cn2c(=O)c1/C=C1\SC(=S)N(C(C)CC)C1=O (centres undefined),inactive
18,CCOc1ccc(NC(=NCc2ccc3c(c2)OCO3)SC2CC(=O)N(c3ccc(OCC)cc3)C2=O)cc1 (centres undefined),"inconclusive: 8.91 µM [inhibitor, single point]"
19,Cc1nc2sc(-c3ccccc3)cc2c(=O)[nH]1,"inconclusive: 39.8 µM [inhibitor, single point]"
20,COc1ccccc1C1C(C#N)=C(N)Oc2cc(C)n(Cc3ccccn3)c(=O)c21 (centres undefined),"inconclusive: 35.5 µM [inhibitor, single point]"
21,CCCCOc1ncnc2c1[nH]c1ccccc12,"inconclusive: 35.5 µM [inhibitor, partial curve]"
22,O=C(c1ccc(=O)n(Cc2ccccc2)n1)N1CCN(C/C=C/c2ccccc2)CC1,inactive
23,COc1ccc(-c2[nH]ncc2-c2ccc3c(c2)OCCO3)c(O)c1,inactive
24,NC(=O)/C(=C\c1ccccc1)NC(=O)c1ccc(NC(=O)c2ccccc2)cc1,"inconclusive: 25.1 µM [inhibitor, single point]"
